Laboratory results reported in PubChem BioAssay AID1159614 (National Center for Advancing Translational Sciences (NCATS), 2016).
About 65 (0.1%) of roughly 45,000 compounds were called active. Calls come from the whole dose curve; as a rule, active = well fitted activation curve with a large enough effect; inconclusive = small, poorly fitted or top-dose-only effect; inactive = no such curve, though single readings can be large or run the other way. The list shows a part of the results.

Each molecule was assayed against Galactocerebrosidase (Homo sapiens) (UniProt P54803) (assay: A Novel Cell-Based Assay to Identify Small Molecules for B -Galactocerebrosidase). Conditions: 145M-Twi-hGALC-G270D cells, HMU-beta-Gal fluorescence, 48 h; series mostly up to 57.5 µM; activation: at the top concentration.
Outline: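 qHTS, 1536-well; 145M-Twi-hGALC-G270D cells (WT line also made) in DMEM/F12 + 10% FBS; compound incubation on live cells; HMU-β-gal 0.1 mM final, pH 5.2, NaTC; carbonate stop; fluorescence increase = enhanced residual activity.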
Note: 0% is about no effect; nearly all actives have a fitted effect of over 65% in size.

Sequence of UniProt P54803 (P54803 whole entry, looked up): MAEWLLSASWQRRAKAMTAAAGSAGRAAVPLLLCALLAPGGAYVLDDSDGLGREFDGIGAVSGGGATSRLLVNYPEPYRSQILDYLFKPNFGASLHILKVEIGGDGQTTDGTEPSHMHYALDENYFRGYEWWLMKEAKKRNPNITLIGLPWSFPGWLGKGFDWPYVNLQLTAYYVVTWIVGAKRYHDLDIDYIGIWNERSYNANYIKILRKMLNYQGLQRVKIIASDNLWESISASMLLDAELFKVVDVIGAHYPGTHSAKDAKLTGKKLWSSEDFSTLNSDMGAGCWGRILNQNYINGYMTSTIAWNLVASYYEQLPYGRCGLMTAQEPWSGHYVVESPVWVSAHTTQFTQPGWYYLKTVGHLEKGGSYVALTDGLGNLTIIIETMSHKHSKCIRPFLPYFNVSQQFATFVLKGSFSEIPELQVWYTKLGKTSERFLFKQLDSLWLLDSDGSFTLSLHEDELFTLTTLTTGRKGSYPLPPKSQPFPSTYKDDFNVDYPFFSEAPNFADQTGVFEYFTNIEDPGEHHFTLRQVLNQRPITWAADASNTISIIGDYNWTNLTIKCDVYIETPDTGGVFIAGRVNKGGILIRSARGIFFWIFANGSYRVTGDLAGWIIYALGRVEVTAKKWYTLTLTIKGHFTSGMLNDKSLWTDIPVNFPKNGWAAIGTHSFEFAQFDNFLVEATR

activation, inactive:
CCN(C(=O)CCNC(=O)Cn1cnc2ccccc2c1=O)c1cccc(Cl)c1 -14.7%
COc1ccc(C2=C(C)C(N3CCC(C(=O)Nc4cc(C)ccc4C)CC3)=NS2(=O)=O)cc1 -10.2%
CCCn1cc(S(=O)(=O)c2ccc(C)cc2)c(=O)c2cc(OC)c(OC)cc21 -12.3%
COc1cccc(NC(=O)C(=O)NCCc2csc(-c3ccc(C)cc3)n2)c1 -13.7%
CCn1c(CN2CCCCC2)nc2cc(NC(=O)c3ccccc3[N+](=O)[O-])ccc21 -16.9%
CSc1ncc(C(=O)NCc2ccc(Cl)cc2)c(C(F)(F)F)n1 -9.03%
CCOC(=O)CSc1nc(-c2ccccc2)cc(C(F)(F)F)c1C#N -16.4%
Cc1nn(-c2ccccc2)c(OC(=O)c2ccc(F)cc2)c1S(=O)(=O)c1ccccc1 -14.1%
COc1cccc(N2CCN(C(=O)c3cc4c(=O)n(Cc5cccs5)ccc4nc3C)CC2)c1 -25.5%
Cc1ccc(CNC(=O)Cn2ncc3c([nH]c4ccc(C)cc43)c2=O)cc1 1.39%
COC(=O)c1ccc(Cl)cc1NC(=O)NCc1c(-n2cccc2)sc2c1CCCC2 -8.97%
CCOc1ccc(C(=O)Nc2ccc(C(=O)OCc3cc(=O)n4ccsc4n3)cc2)cc1 -21.6%
O=C(Nc1cccc2cccnc12)c1cccc2ccccc12 -17.7%
CCOC(=O)c1ccc(NC(=O)c2csc3c2CCCC3)cc1 -11%
CCCc1cc(=O)[nH]c(SCc2nc(-c3ccc(C)cc3)no2)n1 -4.58%
COc1ccc(CCNC(=O)c2ccc(-n3c(C)cc4c3CCCC4)cc2)cc1OC -15.2%
COc1ccccc1CCNC(=O)Cc1c(C)c2cc3c(C(C)(C)C)coc3c(C)c2oc1=O 1.95%
Cc1cccc(NC(=O)Cn2cnc(S(=O)(=O)N3CCCC3)c2)c1C -0.995%
COc1ccccc1NC(=O)CN1C(=O)CC(c2ccc(C)c(C)c2)=Nc2ccccc21 -14.7%
Cc1cccc(Cn2c(SCc3ccc(C(=O)N4CCC(C)CC4)cc3)nc3ccncc32)c1 1.12%
CC(C)Oc1ccc(CNC(=O)Nc2ccc3c(c2)N(C)C(=O)c2ccccc2S3)cc1 -3.32%
COc1ccc(N2CCN(S(=O)(=O)CCNC(=O)COc3cccc(OC)c3)CC2)cc1 -17%
CCCSc1ncc(Cl)c(C(=O)Nc2c(C(=O)Nc3ccccc3)oc3ccccc23)n1 -9.26%
Cc1cccc(NC(=O)c2c(NC(=O)c3ccccc3)sc3c2CCCC3)c1 0.908%
Cn1c(=O)c2c(ncn2CC(=O)O)n(C)c1=O -7.56%
O=C(OCC1CCCO1)c1ccc2c(c1)N(Cc1cccc(Cl)c1)C(=O)c1ccccc1S2(=O)=O (stereo not given) -9.54%
O=C1O[C@H](CO)[C@@H](O)[C@H](O)[C@H]1O -7.95%
Cc1ccc(NC(=O)NCCOCCn2c(=O)oc3ccccc32)cc1F -15.2%
O=S(=O)(c1ccc(Br)cc1)c1nnn2c1nc(Nc1cccc(C(F)(F)F)c1)c1sccc12 0.769%
CCOc1ccc(-c2cc3nc(C4CCN(C(=O)OC(C)(C)C)CC4)c(C(=O)Nc4ccc(C)cc4Cl)cn3n2)cc1 -18.4%
COC(=O)c1c(C)sc(-c2c(-c3ccc4c(c3)OCCO4)[nH]c3[nH]c(=O)[nH]c(=O)c23)c1O 8.09%
CN1CCSc2ccc(C(=O)NCc3ccccc3F)cc21 -5.56%
Cc1cc(C)c2c(n1)nn1c(C)c(CCC(=O)NCc3ccccc3Cl)c(C)nc21 6.47%
CCN(c1ccccc1)S(=O)(=O)c1ccc(NC(=O)c2cc(=O)c3cc(C)ccc3o2)cc1 -13%
O=C(c1ccc2c(c1)N(Cc1ccc(F)cc1)C(=O)c1ccccc1S2=O)N1CCOCC1 (stereo not given) -12.1%
CCC(Sc1nc2ccccc2c2nc(CCc3c(C)n[nH]c3C)nn12)C(=O)Nc1ccc(OC)cc1 (stereo not given) -15.7%
O=C(Nc1nnc(N2CCCCCC2)s1)Nc1ccccc1C(F)(F)F -4.87%
COc1cc(C(=O)Nc2nc3c(s2)Cc2c(Br)ccc(OC)c2-3)cc(OC)c1OC -14.7%
COc1ccc(Cl)cc1NC(=O)CSc1c2c(nc3ccccc13)CCC2 -7.56%
CCN1CCN(c2nnc(-n3cccc3C(=O)Nc3cccc(OC)c3)s2)CC1 -17%
O=C(Cn1ccn(-c2ccc(F)c(F)c2)c(=O)c1=O)c1ccc(F)cc1 -10.5%
CC(C)c1nn2c(=O)cc(COC(=O)CNC(=O)c3ccccc3Cl)nc2s1 -15.4%
CCn1c(=O)sc2cc(NC(=O)c3cccc(OC)c3)ccc21 4.21%
COc1ccc(C2CC(=O)c3c(C)nc(N4CCN(C=O)CC4)nc3C2)c(OC)c1 (stereo not given) -11.2%
Cc1nnc(NC(=O)CSc2nccn2-c2ccc(Cl)cc2)s1 -4.28%
CCC(C)n1c(SCc2ccc(C(C)(C)C)cc2)nc2ccsc2c1=O (stereo not given) 2.22%
CCOc1ccc(Cn2c(CNS(=O)(=O)c3c(C)cc(C)cc3C)nc3cccnc32)cc1 -0.367%
Cc1ccc(OCc2nc(-c3ccc(C(=O)N4CCN(c5cc(Cl)ccc5C)CC4)cc3)oc2C)cc1 -12.3%
Oc1cn2c(n1)Nc1ccc(Cl)c(Cl)c1C2 -18.1% [at 23.8 µM]
O=S(=O)(c1ccccc1)c1nc(-c2cccs2)oc1SCc1ccccc1Cl -5.58%
CCOC(=O)c1c(-c2ccc(C)cc2)csc1NC(=O)c1cc(=O)c2cc(Cl)ccc2o1 -17.7%
O=C(CC1NCCNC1=O)Nc1ccccc1F (stereo not given) -7.77%
CCOc1ccccc1NC(=O)CSc1nc2c([nH]c3ccccc32)c(=O)n1-c1ccccc1 -15%
Cc1ccc(Cl)cc1N1CCN(C(=O)c2cc3c(=O)n(C)c4ccccc4c3s2)CC1 -5.05%
CCOC(=O)CC(=O)CSc1nc2ccccc2c(=O)n1-c1ccc(C(=O)NCCOC)cc1 -19.4%
COC(=O)c1ccc(C(=O)OC)c(NC(=O)N2CC3CCCN3c3ccccc32)c1 (stereo not given) -9.64%
Cc1cccc(OCC(=O)OCc2cc(=O)n3nc(-c4cccs4)sc3n2)c1 -12.2%
O=C(Nc1ccc2nc(SCC(=O)N3CCCC3)sc2c1)c1ccc(Br)cc1 -6.55%
Cc1ccc(CSc2ccc3nnc(CCNS(=O)(=O)c4ccc(C)cc4)n3n2)cc1 -20.3%
Cc1ccc2nc(COc3cccc(NC(=O)COc4ccccc4F)c3)cc(=O)n2c1 -9.16%
CCOC(=O)c1cc(-c2ccccc2)n(-c2cccc(C(=O)Nc3cccc(C)c3)c2)c1C 9.56%
O=C(C1CC1)N1CCc2cc(Br)cc(S(=O)(=O)N3CCN(c4cccc(Cl)c4)CC3)c21 -11.7%
COC(=O)c1ccccc1NC(=O)Cn1c(=O)nc(-c2ccccc2)c2cc(Cl)ccc21 -9.74%
Cc1ccc(NC(=O)c2cc(S(=O)(=O)N3CCCc4ccccc43)ccc2F)cc1F -31.7%
COc1ccc(Nc2c(-c3ccc(C)o3)nc3ccc(Cl)cn23)cc1 -4.39%
CCc1nn(Cc2cccc(F)c2)c(=O)c2cc3cc(C)ccc3n12 -6.72%
CCC(C)NC(=O)Cn1c(=O)n(-c2ccc(Cl)c(Cl)c2)c(=O)c2c(C)c(C(=O)N(CC)CC)sc21 (stereo not given) -10.7%
Cc1ccc(-n2ncc(C(=O)N3CCN(c4ccccn4)CC3)c2C2CCN(C(=O)OC(C)(C)C)CC2)cc1 -12.4%
CCCCC(=O)Nc1cc2nn(-c3ccc(OCC)cc3)nc2cc1C -17.7%
Cc1cccc(C)c1Nc1c(-c2cccs2)nc2ncccn12 -12.3%
CCCCCCCCCCC[C@@H](C[C@@H]1OC(=O)[C@H]1CCCCCC)OC(=O)[C@H](CC(C)C)NC=O -12.2%
Cn1c(=O)c2c(SCC(=O)NCC3CCCO3)nc(-c3cccc(F)c3)nc2n(C)c1=O (stereo not given) -14.4%
Cc1cccc(OCCSc2nc3ccc(NC(=O)c4cccs4)cc3s2)c1 -40.6%
Cc1cccc(Cn2cc(S(=O)(=O)c3ccc(Cl)cc3)c(=O)c3cc4c(cc32)OCO4)c1 -14.8%
CC(=O)c1ccc(NC(=O)c2ccc(NC(=O)CCS(=O)(=O)c3cccs3)cc2)cc1 10.5%
Cc1ccc(OCC(=O)Nc2cc(-c3nc4ccccc4[nH]3)ccc2C)c(C)c1 -20.7%
COc1cc(C2c3c(oc4ccc(C)cc4c3=O)C(=O)N2Cc2ccccc2)ccc1O (stereo not given) -10%
Cc1oc(-c2ccc(Cl)cc2)nc1CSCC(=O)NCc1ccccc1Cl -14.8%
COc1cccc(C(=O)Nc2c(C(=O)c3ccc(F)cc3)oc3ccccc23)c1 11.8%
COC(=O)Cc1c(C)c2ccc3c(c2oc1=O)CN(Cc1ccccc1OC)CO3 -14.7%
CCC(=O)N1CCc2cc(Br)cc(S(=O)(=O)N3CCCC(C(=O)NCc4ccc(OC)cc4)C3)c21 (stereo not given) -8.47%
CC(CNC(=O)Cn1c(-c2cccs2)cc2ccccc21)c1ccccc1 (stereo not given) -0.61%
Cc1ccccc1Nc1cc(C(=O)NCCc2ccc(Cl)cc2)c2ccccc2n1 -13.2%
Cc1ccc2c(CC(=O)N(Cc3ccc(Cl)cc3)Cc3ccco3)coc2c1 -3.76%
CCC(=O)N1CCCc2cc(S(=O)(=O)N3CCC(C(=O)Nc4ccccc4CC)CC3)ccc21 -9.24%
CCCOc1ccc(C2c3c(-c4ccccc4O)n[nH]c3C(=O)N2CCCOCC)cc1OCC (stereo not given) -34.5%
Cc1ccc(Cl)cc1N1CCN(CCCNC(=O)c2nnc(Cc3cccc(Cl)c3)o2)CC1 -40.6%
O=C(Nc1cccc(F)c1)c1cccc2c1C(=O)N(C1CCCCC1)C2 -6.26%
CN1CCc2nc3sc(C(=O)Nc4cccc(C#N)c4)c(N)c3cc2C1 -17%
Cc1cc(C)cc(Nc2nnc(-n3nc(C)cc3C)c3ccccc23)c1 -25.6%
CC1=C(c2ccc(C)c(C)c2)S(=O)(=O)N=C1N1CCC(C(=O)Nc2cccc(F)c2)CC1 -10.5%
COc1ccccc1NC(=O)Cn1c(=O)n(-c2cccc(Cl)c2)c(=O)c2c1c1cc(C)ccc1n2C -6.86%
COc1cccc(NC(=O)CSc2nnc(-c3cccs3)o2)c1 -25.1%
Cc1cccc(OCC(=O)Nc2ccc(Cl)c(-c3nc4ccccc4[nH]3)c2)c1 3.69%
CCc1ccccc1NC(=O)CSc1ncc(S(=O)(=O)c2ccccc2)c(=O)[nH]1 -10.7%
